Laboratory results published in PubChem BioAssay AID652104 (National Center for Advancing Translational Sciences (NCATS), 2013).
Screen size: about 410,000 compounds; about 7,200 (1.8%) were called active. Inconclusive means that the source gave no clear call. Such entries were picked first, then a sample of the others. Calls come from the whole dose curve; as a rule, active = well fitted activation curve with a large enough effect; inconclusive = small, poorly fitted or top-dose-only effect, or another doubt; inactive = no such curve, though single readings can be large or run the other way. No potency is given beside an inconclusive call; the fits are too rough.

Assay: qHTS of TDP-43 Inhibitors; note: nearly all actives have a fitted effect of over 50% in size; for growth rescue (activation): % of control where 0% means no effect
Conditions: TDP-43 expressing yeast growth rescue, BacTiter-Glo, 24 h; growth rescue (activation): at 46.1 µM (top of the series) unless noted
How it was run: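 Cell-based yeast growth screen: TDP-43 expression induced in galactose, inoculum OD600=0.02 after raffinose pregrowth to mid-log. Read-out BacTiter-Glo luminescence at 24 hr, 30 deg C; inhibition of toxicity seen as signal increase.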
Potency is the fitted concentration of half-maximal effect; tags give direction and shape of the fitted curve.

Row | Compound | Potency | growth rescue (activation)
1 | CCN(CC)S(=O)(=O)c1cccc(-c2n[nH]c(=S)n2/N=C/c2ccc(Br)cc2)c1 | inconclusive [activator, partial curve, poor fit] | –
2 | CCOc1ccc(CN(C)C(=O)c2cccnc2OCC)cc1OC | inconclusive [activator, partial curve, poor fit] | –
3 | Cc1ccc(N2CCN(C(=O)c3c(C)oc4ncnc(N5CCCCC5)c34)CC2)c(C)c1 | inconclusive [activator, single point] | –
4 | Cc1nc2c(-c3ccccc3)c(C)nn2c(C)c1CCC(=O)NCCc1ccccc1 | inconclusive [activator, partial curve] | –
5 | Cc1cc(/C=N/NC(N)=S)c(C)n1-c1ccc(Cl)cc1 | inconclusive [activator, single point] | –
6 | O=C(Nc1ccccc1C(=O)NCC1CCCO1)c1ccc(Cl)cc1 (configuration not stated) | inconclusive [activator, partial curve, poor fit] | –
7 | O=C(COc1cccc(Cl)c1)N1CCC(c2nc3ccccc3o2)CC1 | active: 28.2 µM | –
8 | CCOc1ccc(OCC)c(NC(=O)CN(C)S(=O)(=O)c2cccc3nsnc23)c1 | inconclusive [activator, single point] | –
9 | COc1ccc2ccccc2c1/C=N/O | inconclusive [activator, partial curve, poor fit] | –
10 | CCCNC(=O)c1cnn2c(C(F)F)cc(-c3ccccc3)nc12 | active: 12.6 µM | –
11 | O=C(COC(=O)/C=C/c1ccc(C(F)(F)F)cc1)NC1CCCC1 | active: 10 µM | –
12 | c1ccc(C2Nc3ccccc3-c3nc4ccccc4n32)cc1 (configuration not stated) | inconclusive [activator, single point] | –
13 | CCOC(=O)Cn1c(S(=O)(=O)Cc2ccc(Cl)cc2)nc(-c2ccccc2)c1-c1ccccc1 | inactive | –
14 | O=C(/C=C/c1ccccc1Cl)Nc1cccc(O)c1 | inactive | –
15 | Cn1c(C(=O)O)c(CC(=O)Nc2ccccc2F)c2ccccc21 | inconclusive [activator, partial curve, poor fit] | –
16 | Brc1cccc(-c2nnc(SCc3ccon3)n2-c2ccccc2)c1 | active: 17.8 µM | –
17 | O=C(NCCc1ccc(Cl)cc1)C1(c2ccccc2)CC1 | active: 14.1 µM | –
18 | Cc1nc([N+](=O)[O-])c(Br)n1CC(=O)c1ccccc1 | inactive | –
19 | Nc1cc(SCc2ccc([N+](=O)[O-])cc2)ncn1 | inconclusive [activator, single point] | –
20 | C[C@@]12C(=O)Nc3ccc(Br)cc3C(=O)N1[C@H]1c3ccccc3OC[C@@H]1[C@@H]2c1ccccc1 | – | inconclusive: -37.1% [activator]
21 | CC(Sc1ccccc1F)C(=O)Nc1ccc2c(c1)OCCO2 (configuration not stated) | inconclusive [activator, single point] | –
22 | CCc1ccccc1N1CC(c2nc3ccccc3n2CCOc2ccc(Cl)c(C)c2)CC1=O (configuration not stated) | inactive | –
23 | CCn1c(C(=O)N2CCC(C(=O)N3CCN(c4ccc(OC)cc4)CC3)CC2)cc2sccc21 | active: 22.4 µM | –
24 | COc1ccc(Cl)cc1N=C1NC(=O)CC(C(=O)Nc2ccccc2C(F)(F)F)S1 (configuration not stated) | inactive | –

Row | Compound | Potency | growth rescue (activation)
25 | CN(C)c1ccc(C(=O)Nc2c(C(=O)NC(C)(C)C)oc3ccccc23)cc1 | inactive | –
26 | CC(C)Oc1ccc(CNC(=O)c2ccc3nc(C(C)C)oc3c2)cc1 | inactive | –
27 | O=C(c1cccn1-c1nnc(N2CCCCC2)s1)N1CCN(c2ccc(Cl)cc2)CC1 | inactive | –
28 | N#CC1C(=N)Cc2ccccc2-c2ccccc21 (configuration not stated) | inconclusive [activator, single point] | –
29 | CC(=O)N1CCc2cc(Br)cc(S(=O)(=O)NCCc3ccc(Cl)cc3)c21 | inconclusive [activator, full curve] | –
30 | COc1cc(NS(=O)(=O)c2ccc(Nc3nc(-c4ccccn4)cs3)cc2)nc(OC)n1 | inconclusive [activator, single point] | –
31 | O=C(CCc1ccccc1)NNC(=O)c1ccc(Cl)cc1 | inactive | –
32 | CCc1ccccc1NC(=S)N(Cc1ccc(OC)cc1)CC1CCC(C(=O)O)CC1 (configuration not stated) | – | inactive: -5.41% [at 0.397 µM]
33 | CCOc1ccc(Nc2nc3c(S(=O)(=O)c4ccc(CC)cc4)nnn3c3ccc(Cl)cc23)cc1 | inactive | –
34 | COCCn1c(SCC(=O)Nc2ncc(Cl)c(C)c2Cl)nc2ccccc21 | inconclusive [activator, single point] | –
35 | O=C(N/N=C/c1cc([N+](=O)[O-])cc(Br)c1O)C12CC3CCC(CC(C3)C1)C2 | active: 4.47 µM | –
36 | c1ccc(N2CCN(Cc3nnc(-c4ccc5c(c4)OCO5)o3)CC2)cc1 | inactive | –
37 | Nc1ccccc1Sc1ccc(C(F)(F)F)cc1[N+](=O)[O-] | active: 11.2 µM | –
38 | O=C(c1c(F)cccc1Cl)N1CCN(S(=O)(=O)c2ccc3c(c2)OCCCO3)CC1 | active: 14.1 µM | –
39 | O=CNc1ccc2c3c(cccc13)-c1ccccc1-2 | inconclusive [activator, single point] | –
40 | CC(=O)c1cccc(NC(=O)c2ccc(Cl)c(S(=O)(=O)N3CCOCC3)c2)c1 | inactive | –
41 | Cc1ccc2occ(/C=N/NC(=O)c3ccncc3)c(=O)c2c1 | inconclusive [activator, single point] | –
42 | O=C1CCCN1c1ccc(S(=O)(=O)Oc2cccc(Cl)c2)cc1[N+](=O)[O-] | inconclusive [activator, single point] | –
43 | Cn1nnnc1Sc1ccc([N+](=O)[O-])cc1Cl | inconclusive [activator, single point] | –
44 | COc1ccc(-c2nc3scc(CCNS(=O)(=O)c4c(C)cc(C)cc4C)n3n2)cc1OC | active: 22.4 µM | –
45 | O=C(CSCc1c(Cl)cccc1Cl)Nc1nccs1 | inconclusive [activator, full curve] | –
46 | CC1CCCC(C)N1C(=O)CSc1nc2ccccc2s1 (configuration not stated) | active: 7.94 µM | –
47 | CCOc1ncccc1C(=O)NCC1COc2ccccc2O1 (configuration not stated) | inconclusive [activator, partial curve] | –
